Screen size: about 48,000 compounds; about 120 (0.25%) were called active. About 4% were inconclusive and are not listed. Calls come from the whole dose curve; as a rule, active = well fitted activation curve with a large enough effect; inconclusive = small, poorly fitted or top-dose-only effect, or another doubt; inactive = no such curve, though single readings can be large or run the other way. The list shows a part of the results.
Assay: Primary qHTS for Identification of Small Molecule Activators of Huntingtin-Antisense Promoter Activity; note: nearly all actives have a fitted effect of over 55% in size
Conditions: HEK293 HTT-AS promoter firefly luciferase reporter, 24 h; series mostly up to 57.5 µM; activity change, positive = activation: at the top concentration
Outline: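 HEK293 luciferase promoter-reporter cells (2,500/well) plated 24 h, then compounds added at up to 57.5 uM final for 24 h at 37 °C. Firefly luminescence by Dual-Glo, normalized to vehicle (0%) and zero RLU (-100%).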

Row | Structure (SMILES) | activity change, positive = activation
1 | N#Cc1c(C(F)(F)F)cc(-c2cccs2)nc1SCC(=O)Nc1ccc(Cl)cc1 | inactive: -17%
2 | Cc1cccc(N2CCN(S(=O)(=O)c3c(C)[nH]c(=O)[nH]c3=O)CC2)c1C | inactive: -14.2%
3 | O=C1CN(C(=O)c2ccccc2)C(c2ccc(F)cc2)c2cc(Br)ccc2N1 (stereo unspecified) | inactive: -5.93%
4 | CCc1cccc(C)c1NC(=O)Nc1csc2c1CCCC2 | inactive: -32.7%
5 | Cc1ccc(C)c(NC(=O)CSc2nncn3c2cc2sccc23)c1 | inactive: -37.4%
6 | COc1ccc2sc(N(Cc3cccnc3)C(=O)c3ccco3)nc2c1 | inactive: -26.7%
7 | CCOCCCNC(=O)c1c(NC(=O)c2cc(=O)c3cc(C)c(C)cc3o2)sc2c1CCC2 | inactive: -2.19%
8 | CCOC(=O)c1ccc(N2C(=O)c3[nH]nc(-c4ccc(OC)cc4)c3C2c2ccc(C)cc2)cc1 (stereo unspecified) | inactive: -34.1%
9 | CCCNC(=O)C1CCN(c2cc(C)nc3c(-c4ccc(OC)c(OC)c4)c(C)nn23)CC1 | inactive: 5.27%
10 | COc1ccc(CN2C(=O)N(c3ccc(F)cc3)C(=O)C2CC(=O)Nc2ccccc2)cc1 (stereo unspecified) | inactive: -2.51%
11 | CCOc1ccc(N2CC(c3nc4ccccc4n3CCC3CCCCC3)CC2=O)cc1 (stereo unspecified) | inactive: -18.6%
12 | Cc1ccc(CCNc2nc3ccccc3c3nc(-c4ccccc4)nn23)cc1 | inactive: 4.09%
13 | O=C1N=C(O)CN1/N=C/c1ccc(-c2ccc([N+](=O)[O-])cc2)o1 | inactive: -2.45%
14 | Cc1oc(-c2ccc(Cl)cc2)nc1CSc1nnc(C)n2c1cc1sccc12 | inactive: -7.53%
15 | O=C(NCCc1c[nH]c2ccccc12)Nc1ccccc1C(F)(F)F | inactive: -20.7%
16 | COC(=O)c1cc(NC(=O)Cn2ncc3c2-c2ccccc2OC3)cc(C(=O)OC)c1 | inactive: -28.7%
17 | COc1ccc(-c2noc(-c3ccc(NC4CCCCC4)c([N+](=O)[O-])c3)n2)cc1OC | inactive: -2.48%
18 | COc1cc2cc(CNc3ccc(C)cc3)c(=O)n(CC(=O)Nc3ccc(C(C)C)cc3)c2cc1OC | inactive: -13.2%
19 | CN(C)c1ccc(CNC(=O)CCC(=O)N2Cc3ccccc3Oc3ncccc32)cc1 | inactive: -16.3%
20 | COc1ccccc1NC(=O)c1ccccc1NC(=O)c1ccccc1 | inactive: -20.9%
21 | COc1ccc(NC(=O)CSc2nc(-c3ccc(OC)cc3)[nH]c2-c2ccc(F)cc2)cc1 | inactive: -21%

Row | Structure (SMILES) | activity change, positive = activation
22 | Cc1ccc(CN(C(=O)COc2ccc(C(C)(C)C)cc2)C2CCS(=O)(=O)C2)o1 (stereo unspecified) | inactive: -30.4%
23 | COc1ccc(-c2c3c(nc4sc(C(=O)Nc5ccc(Cl)cc5)c(N)c24)CC(C)(C)CC3=O)cc1 | inactive: -5.31%
24 | CCOc1ccccc1NC(=O)CN(CCc1ccccc1)S(=O)(=O)c1ccc(C)cc1 | inactive: -62% [at 11.5 µM, percent change from vehicle, -100% = no light]
25 | Cn1nnc2c(N3CCCCC3)ncnc21 | inactive: 3.26%
26 | CCc1cccc(C)c1NC(=O)CN1C(=O)c2c(c3ccccc3n2C)C1c1ccc(OC)cc1 (stereo unspecified) | inactive: -20.2%
27 | Clc1ccc(CNc2nc3ccccc3c3nc(-c4cccnc4)nn23)cc1 | inactive: -4.9%
28 | CCn1ccc2cc(S(=O)(=O)N3CCC(C(=O)NCCc4ccc(SC)cc4)CC3)ccc21 | inactive: -31.3%
29 | CCCCN(C)C(=O)CN1C(=O)CCn2nc(-c3cn(C)c4ccccc34)cc21 | inactive: -17.4%
30 | COc1ccc(-c2nc(CCNC(=O)c3cccs3)cs2)cc1OC | inactive: -29%
31 | COc1cccc(CCNC(=O)c2c(O)nc3cc(C)ccn3c2=O)c1 | inactive: -9.75%
32 | CCc1ccccc1NC(=O)C(NS(=O)(=O)c1ccc2c(c1)CCC(=O)N2)c1ccccc1 (stereo unspecified) | inactive: 8%
33 | CCc1cccc(NC(=O)c2nc(-c3ccncc3)no2)c1 | inactive: -6.76%
34 | CCOc1ccc(C(=O)Nc2ccc(-c3nc4cc(C(C)C)ccc4o3)cc2)cc1Cl | inactive: -21.8%
35 | COc1ccc(C2=NN(CC(=O)NCc3ccccc3Cl)C(=O)CC2)cc1 | inactive: -0.527%
36 | Cc1ccc(CCNC(=O)c2c(C)oc3ncnc(N4CCOCC4)c23)cc1 | inactive: -12%
37 | COc1cccc(CNC(=O)N2CCC(CN3CCC(C)CC3)CC2)c1 | inactive: -2.88%
38 | Cc1ccc(NCc2cccn2-c2nnc(N3CCC(C(=O)NCCc4ccccc4)CC3)s2)cc1 | inactive: -20.7%
39 | NC(=Nc1ccccc1)Nc1ccccc1 | inactive
40 | Cc1ccc2c(c1)N(C(=O)N1CCC(C(=O)NCCC3=CCCCC3)CC1)CC(C)O2 (stereo unspecified) | inactive: -20.6%
41 | Cc1c(C(=O)N2CCCC2)oc2c1-c1nn(CC(=O)NCc3cccc(F)c3)cc1CC2 | inactive: -29.3%
42 | Cc1ccccc1Nc1ncnc2c1c(-c1ccccc1)cn2-c1ccc(F)cc1 | inactive: -17.2%

Row | Structure (SMILES) | activity change, positive = activation
43 | O=C(CCc1nc2cccnc2n1Cc1ccccc1)NCc1cccc(Cl)c1 | inactive: -12.1%
44 | OCc1cnc(SCc2cccc(F)c2)n1Cc1ccc(F)cc1 | inactive: -31.5%
45 | O=C(Nc1cccc(Cl)c1)c1ccc2nc(Cc3ccccc3)oc2c1 | inactive: 5.41%
46 | Cc1ncc(COC(=O)C(C)C)c2cc(C(=O)Nc3ccccc3C(F)(F)F)c(=O)oc12 | inactive: -11.5%
47 | CCN(CC)CCCNC(=O)CCc1c(C)n(CC)c2cc(-c3ccccc3OC)nn2c1=O | inactive: 1.59%
48 | CCCCn1c(CNC(=O)C23CC4CC(CC(C4)C2)C3)nnc1SCC(=O)Nc1ccccc1 | inactive: -15.9%
49 | CCOc1ccc(CCNc2ncnc3onc(-c4ccc(F)cc4)c23)cc1OCC | inactive: -34%
50 | CN1c2ccc(Cl)cc2-c2nc(SCC(=O)Nc3cc(F)ccc3F)ncc2S1(=O)=O | inactive: -34.3%
51 | COC(=O)NNC(=O)C1CCC(C)CC1 (stereo unspecified) | inactive: -11.8%
52 | Cc1cccc(N2C(=O)CS(=O)(=O)C23C(=O)N(C)c2ccccc23)c1 (stereo unspecified) | inactive: -9.03%
53 | COC(=O)c1ccccc1NC(=O)c1ccc2c(c1)CCN2S(=O)(=O)c1ccc(C)cc1 | inactive: -8.46%
54 | O=c1cc(-c2ccccc2)n2c(SCc3ccc([N+](=O)[O-])cc3)nnc2[nH]1 | inactive: 2.81%
55 | CC1=C(C(N)=O)C(c2cccc(F)c2)n2nc(SCc3ccccc3)nc2N1 (stereo unspecified) | inactive: 5.58%
56 | O=C(O)Cn1nc(N2CCN(c3ccc(F)cc3)CC2)ccc1=O | inactive: -2.99%
57 | COc1cc(OC)c(NC(=O)C2=C(C)C(=O)OC23CCCCC3)cc1Cl | inactive: -20.7%
58 | COc1ccccc1CNC(=O)c1cc(Sc2cccc(Cl)c2)nc2ccccc12 | inactive: -30.6%
59 | CCc1ccc(C(=O)c2cnc3ccc(C)cc3c2S(=O)(=O)c2ccc(OC)cc2)cc1 | inactive: -34.8%
60 | CCCCc1ccc(C(=O)Nc2ccc3nc(N(CC)CC)cc(C)c3c2)cc1 | inactive: -37.7%
61 | COc1ccc2cc(CNc3ccc(C)cc3)c(=O)n(CC(=O)Nc3ccc(OC)c(Cl)c3)c2c1 | inactive: -9.58%
